# Test results: article PMC5892938
# This is one part of the list. At the low end of the ranking, values are background and their order means little.
# Target: GST-SBP-SLBP (stem-loop binding protein) (UniProt Q14493)
# Assay: targeted RNA Bind-n-Seq;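 further: DESeq read counts versus GST-SBP nonspecific binding control pulldown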
# Conditions: RBNS binding buffer: 25 mM Tris pH 7.5, 150 mM KCl, 3 mM MgCl2, 0.1% Tween, 0.5 mg/mL BSA, 1 mM DTT; 27 nM protein, 750 pM RNA pool; temperature not stated; high values mean tight binding
row,Sequence,binding signal (log2 fold change)
1,GGUCACGUCUCAAUCAACUCAAGUCCAGGAGUUUCCUCCUGUUUUUUCAACAGCUCGCAGUCAAG,0.261
2,GGUCACGUCUCAAUCAACUCUUAAGAGGGGGGGAAAACCCCUUUGCCCUCCAUUUCAACAGCUCGCAGUCAAG,-0.266
3,GGUCACGUCUCAAUCAACUCUAGUCCCAGGGAAACCCCUGGUUAAUUCAACAGCUCGCAGUCAAG,0.192
4,GGUCACGUCUCAAUCAACUCUCCUGAGGGGGGGAAAACCCCUUUACCCUCUACAUCAACAGCUCGCAGUCAAG,-0.363
5,GGUCACGUCUCAAUCAACUCACAAGAGGGGGGGAAAACCCCUUUACCCUCCACUUCAACAGCUCGCAGUCAAG,0.191
6,GGUCACGUCUCAAUCAACUCUUUUCCCAGGGAAAGCCCUGGUAUAUUCAACAGCUCGCAGUCAAG,0.123
7,GGUCACGUCUCAAUCAACUCAUCUCCCAGGGAAACCCCUGGCAAUCUCAACAGCUCGCAGUCAAG,-0.0505
8,GGUCACGUCUCAAUCAACUCAUUUUCCAGGGAAAUCCCUGGCUUUCUCAACAGCUCGCAGUCAAG,0.128
9,GGUCACGUCUCAAUCAACUCUUUUCCCAGGGAAAUCCCUGGUUAAUUCAACAGCUCGCAGUCAAG,0.00842
10,GGUCACGUCUCAAUCAACUCUUUUUCCAGGGAAAACCCUGGCAAUUUCAACAGCUCGCAGUCAAG,-0.0223
11,GGUCACGUCUCAAUCAACUCUAGUCCCAGGGAAAGCCCUGGCAAUUUCAACAGCUCGCAGUCAAG,-0.642
12,GGUCACGUCUCAAUCAACUCAGUCCCCAGGGAAACCCCUGGUUUUUUCAACAGCUCGCAGUCAAG,-0.218
13,GGUCACGUCUCAAUCAACUCAAUCUCAGGAGUUUACUCCUGUAUUCUCAACAGCUCGCAGUCAAG,-0.0202
14,GGUCACGUCUCAAUCAACUCAAACGAGGGGGGGAAAACCCCUUUACCCUCACUUUCAACAGCUCGCAGUCAAG,-0.23
15,GGUCACGUCUCAAUCAACUCUACUCCAGGAGUUUUCUCCUGUAAUCUCAACAGCUCGCAGUCAAG,0.215
16,GGUCACGUCUCAAUCAACUCUUCGUCAGGAGUUUUCUCCUGUAUAUUCAACAGCUCGCAGUCAAG,0.0391
17,GGUCACGUCUCAAUCAACUCAACUUCCAGGGAAAACCCUGGUUAAUUCAACAGCUCGCAGUCAAG,0.0708
18,GGUCACGUCUCAAUCAACUCUUUCUCCAGGGAAAGCCCUGGCUAUGUCAACAGCUCGCAGUCAAG,0.2
19,GGUCACGUCUCAAUCAACUCUUUAGAGGGGGGGAAAACCCCUUUGCCCUCCACAUCAACAGCUCGCAGUCAAG,0.0912
20,GGUCACGUCUCAAUCAACUCUUCUCCAGGAGUUUCCUCCUGUUUACUCAACAGCUCGCAGUCAAG,0.00433
21,GGUCACGUCUCAAUCAACUCAUCGUCAGGAGUUUUCUCCUGUUAAUUCAACAGCUCGCAGUCAAG,0.0201
22,GGUCACGUCUCAAUCAACUCUUCCGAGGGGGGGAAAACCCCUUUACCCUCAUCCUCAACAGCUCGCAGUCAAG,-0.289
23,GGUCACGUCUCAAUCAACUCAACUCCCAGGGAAAACCCUGGUUUUCUCAACAGCUCGCAGUCAAG,0.148
24,GGUCACGUCUCAAUCAACUCAAUCCCCAGGGAAACCCCUGGCAAACUCAACAGCUCGCAGUCAAG,-0.0511
25,GGUCACGUCUCAAUCAACUCUUUCUCAGGAGUUUUCUCCUGUUAUUUCAACAGCUCGCAGUCAAG,-0.138

row,Sequence,binding signal (log2 fold change)
1,GGUCACGUCUCAAUCAACUCAACUUCCAGGGAAAACCCUGGCAAAUUCAACAGCUCGCAGUCAAG,0.118
2,GGUCACGUCUCAAUCAACUCUAUCUCAGGAGUUUCCUCCUGCAUACUCAACAGCUCGCAGUCAAG,-0.0155
3,GGUCACGUCUCAAUCAACUCUUUCUCAGGAGUUUACUCCUGCAUACUCAACAGCUCGCAGUCAAG,-0.071
4,GGUCACGUCUCAAUCAACUCUUUUUCAGGAGUUUUCUCCUGUAUUCUCAACAGCUCGCAGUCAAG,0.0346
5,GGUCACGUCUCAAUCAACUCCCACGAGGGGGGGAAAACCCCUUUACCCUCAUCAUCAACAGCUCGCAGUCAAG,-0.0943
6,GGUCACGUCUCAAUCAACUCAUUCUCCAGGGAAAGCCCUGGUUUUUUCAACAGCUCGCAGUCAAG,-0.0442
7,GGUCACGUCUCAAUCAACUCUUUCCCCAGGGAAAGCCCUGGUAUUUUCAACAGCUCGCAGUCAAG,-0.0971
8,GGUCACGUCUCAAUCAACUCUAUCUCCAGGGAAAGCCCUGGCAAUUUCAACAGCUCGCAGUCAAG,-0.196
9,GGUCACGUCUCAAUCAACUCAAUUCCAGGAGUUUGCUCCUGUAUACUCAACAGCUCGCAGUCAAG,-0.0454
10,GGUCACGUCUCAAUCAACUCAGUCUCAGGAGUUUCCUCCUGUAUUUUCAACAGCUCGCAGUCAAG,0.0157
11,GGUCACGUCUCAAUCAACUCUCACGAGGGGGGGAAAACCCCUUUACCCUCAACCUCAACAGCUCGCAGUCAAG,-0.255
12,GGUCACGUCUCAAUCAACUCAUAAGAGGGGGGGAAAACCCCUUUACCCUCCAUCUCAACAGCUCGCAGUCAAG,-0.165
13,GGUCACGUCUCAAUCAACUCAGUCUCCAGGGAAAGCCCUGGCAAAUUCAACAGCUCGCAGUCAAG,-0.238
14,GGUCACGUCUCAAUCAACUCUAUCGAGGGGGGGAAAACCCCUUUACCCUCACCGUCAACAGCUCGCAGUCAAG,-0.0904
15,GGUCACGUCUCAAUCAACUCAAUUUCCAGGGAAAUCCCUGGUUAACUCAACAGCUCGCAGUCAAG,-0.352
16,GGUCACGUCUCAAUCAACUCAUCCCCCAGGGAAAUCCCUGGCUAAUUCAACAGCUCGCAGUCAAG,-0.158
17,GGUCACGUCUCAAUCAACUCAGUUCCAGGAGUUUUCUCCUGCUAAUUCAACAGCUCGCAGUCAAG,-0.415
18,GGUCACGUCUCAAUCAACUCAUCGCCCAGGGAAAUCCCUGGUAUUCUCAACAGCUCGCAGUCAAG,-0.206
19,GGUCACGUCUCAAUCAACUCAUUUCCCAGGGAAAACCCUGGCUUAUUCAACAGCUCGCAGUCAAG,0.0997
20,GGUCACGUCUCAAUCAACUCUUCCUCCAGGGAAAUCCCUGGUAAUUUCAACAGCUCGCAGUCAAG,0.0152
21,GGUCACGUCUCAAUCAACUCUUUCCCCAGGGAAAACCCUGGUAUAUUCAACAGCUCGCAGUCAAG,-0.12
22,GGUCACGUCUCAAUCAACUCAUCCUCAGGAGUUUACUCCUGCUAACUCAACAGCUCGCAGUCAAG,0.177
23,GGUCACGUCUCAAUCAACUCUUCUUCAGGAGUUUCCUCCUGUAUUUUCAACAGCUCGCAGUCAAG,-0.126
24,GGUCACGUCUCAAUCAACUCAUUCUCAGGAGUUUACUCCUGUAUAUUCAACAGCUCGCAGUCAAG,-0.122
25,GGUCACGUCUCAAUCAACUCUUCCUCCAGGGAAAACCCUGGUAUUCUCAACAGCUCGCAGUCAAG,0.106

row,Sequence,binding signal (log2 fold change)
1,GGUCACGUCUCAAUCAACUCUAUUCCCAGGGAAAUCCCUGGCUUUCUCAACAGCUCGCAGUCAAG,0.0548
2,GGUCACGUCUCAAUCAACUCAUUCUCCAGGGAAACCCCUGGCAUAUUCAACAGCUCGCAGUCAAG,-0.042
3,GGUCACGUCUCAAUCAACUCAACAGAGGGGGGGAAAACCCCUUUACCCUCAUCCUCAACAGCUCGCAGUCAAG,0.294
4,GGUCACGUCUCAAUCAACUCAAUGUCAGGAGUUUCCUCCUGUAAAUUCAACAGCUCGCAGUCAAG,0.0476
5,GGUCACGUCUCAAUCAACUCUUUUCCAGGAGUUUUCUCCUGUAUUUUCAACAGCUCGCAGUCAAG,0.038
6,GGUCACGUCUCAAUCAACUCUUCCCCCAGGGAAAUCCCUGGCUAAUUCAACAGCUCGCAGUCAAG,0.0841
7,GGUCACGUCUCAAUCAACUCUAUUUCCAGGGAAAUCCCUGGCUUACUCAACAGCUCGCAGUCAAG,-0.0226
8,GGUCACGUCUCAAUCAACUCUCACGAGGGGGGGAAAACCCCUUUACCCUCCAUAUCAACAGCUCGCAGUCAAG,-0.101
9,GGUCACGUCUCAAUCAACUCCACAGAGGGGGGGAAAACCCCUUUACCCUCAGAAUCAACAGCUCGCAGUCAAG,-0.0875
10,GGUCACGUCUCAAUCAACUCAUCCUCAGGAGUUUACUCCUGCAUAGUCAACAGCUCGCAGUCAAG,0.116
11,GGUCACGUCUCAAUCAACUCAUCCCCAGGAGUUUACUCCUGCUAUCUCAACAGCUCGCAGUCAAG,-0.0172
12,GGUCACGUCUCAAUCAACUCUUCUUCAGGAGUUUCCUCCUGCAUUUUCAACAGCUCGCAGUCAAG,-0.0201
13,GGUCACGUCUCAAUCAACUCCUACGAGGGGGGGAAAACCCCUUUACCCUCAAACUCAACAGCUCGCAGUCAAG,-0.717
14,GGUCACGUCUCAAUCAACUCAUUUUCCAGGGAAACCCCUGGUUAUCUCAACAGCUCGCAGUCAAG,0.115
15,GGUCACGUCUCAAUCAACUCAUUUUCCAGGGAAAACCCUGGUAUACUCAACAGCUCGCAGUCAAG,-0.155
16,GGUCACGUCUCAAUCAACUCAAUCUCCAGGGAAAGCCCUGGUAUAUUCAACAGCUCGCAGUCAAG,0.185
17,GGUCACGUCUCAAUCAACUCAUCGUCCAGGGAAAGCCCUGGCUAAUUCAACAGCUCGCAGUCAAG,-0.204
18,GGUCACGUCUCAAUCAACUCUAUAGAGGGGGGGAAAACCCCUUUACCCUCCAAAUCAACAGCUCGCAGUCAAG,-0.421
19,GGUCACGUCUCAAUCAACUCUCACGAGGGGGGGAAAACCCCUUUACCCUCUCUAUCAACAGCUCGCAGUCAAG,-0.146
20,GGUCACGUCUCAAUCAACUCUUUUUCAGGAGUUUACUCCUGUUUUCUCAACAGCUCGCAGUCAAG,-0.077
21,GGUCACGUCUCAAUCAACUCUUUAGAGGGGGGGAAAACCCCUUUGCCCUCACUAUCAACAGCUCGCAGUCAAG,-0.0364
22,GGUCACGUCUCAAUCAACUCAUCCCCCAGGGAAACCCCUGGUAAUCUCAACAGCUCGCAGUCAAG,-0.016
23,GGUCACGUCUCAAUCAACUCUAACGAGGGGGGGAAAACCCCUUUGCCCUCAAUUUCAACAGCUCGCAGUCAAG,-0.0181
24,GGUCACGUCUCAAUCAACUCAUCUUCAGGAGUUUGCUCCUGCAAUCUCAACAGCUCGCAGUCAAG,0.328
